# Assay results taken from article PMC4336329 (PLoS ONE, 2015).
# In all, about 310,000 compounds went through this assay and about 2,200 (0.71%) showed an effect of 50% or more. The effect is printed as a negative number. Some of the results follow.
# Target: human ether-à-go-go-related gene (hERG) potassium channel (human, UniProt Q12809)
# Experiment: primary screen, population patch clamp on CHO cells stably expressing hERG
# Chain of human ether-à-go-go-related gene (hERG) potassium channel (Q12809 whole entry, looked up): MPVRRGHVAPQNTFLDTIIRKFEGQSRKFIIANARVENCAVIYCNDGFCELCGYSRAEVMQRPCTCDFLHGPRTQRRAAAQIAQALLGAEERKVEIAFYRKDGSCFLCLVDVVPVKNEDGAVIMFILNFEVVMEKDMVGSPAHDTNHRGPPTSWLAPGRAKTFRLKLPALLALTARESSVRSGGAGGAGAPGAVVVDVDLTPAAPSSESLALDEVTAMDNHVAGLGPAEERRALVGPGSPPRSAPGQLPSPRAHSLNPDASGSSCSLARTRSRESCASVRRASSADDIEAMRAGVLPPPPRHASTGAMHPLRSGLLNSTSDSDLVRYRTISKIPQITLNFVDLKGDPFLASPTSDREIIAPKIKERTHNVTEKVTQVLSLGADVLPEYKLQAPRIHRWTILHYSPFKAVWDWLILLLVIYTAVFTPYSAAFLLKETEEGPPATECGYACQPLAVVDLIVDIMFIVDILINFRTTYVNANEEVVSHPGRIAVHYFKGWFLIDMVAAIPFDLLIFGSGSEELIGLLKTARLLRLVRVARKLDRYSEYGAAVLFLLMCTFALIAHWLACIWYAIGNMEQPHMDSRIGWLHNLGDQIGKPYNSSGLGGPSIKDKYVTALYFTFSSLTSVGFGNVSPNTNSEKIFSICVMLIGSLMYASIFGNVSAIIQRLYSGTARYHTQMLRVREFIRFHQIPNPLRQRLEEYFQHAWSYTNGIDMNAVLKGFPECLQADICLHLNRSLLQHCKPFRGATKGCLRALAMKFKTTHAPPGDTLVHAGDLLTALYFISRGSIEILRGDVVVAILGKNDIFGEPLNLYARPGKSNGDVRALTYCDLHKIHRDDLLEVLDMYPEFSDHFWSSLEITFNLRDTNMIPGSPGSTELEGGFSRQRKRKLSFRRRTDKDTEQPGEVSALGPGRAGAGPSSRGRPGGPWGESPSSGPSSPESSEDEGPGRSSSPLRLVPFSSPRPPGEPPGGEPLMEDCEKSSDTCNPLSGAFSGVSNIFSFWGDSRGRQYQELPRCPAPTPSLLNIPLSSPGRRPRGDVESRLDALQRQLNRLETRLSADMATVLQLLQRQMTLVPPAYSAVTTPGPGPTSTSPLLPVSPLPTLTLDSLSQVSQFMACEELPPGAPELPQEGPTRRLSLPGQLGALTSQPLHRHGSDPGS
row,Structure (SMILES),"hERG current change (%, negative = inhibition) at 1uM [%]"
1,CCc1c(C)nc(SCC(=O)NNC(=O)c2ccco2)[nH]c1=O,-8.27
2,O=C(Nc1ccc(OC(F)F)cc1)c1cc(S(=O)(=O)N2CCOCC2)ccc1F,-13.5
3,COc1ccc(/C=C/C(=O)OCn2c(SC)nnc(C)c2=O)cc1OC,-4.77
4,CN(C)c1ccc(C(=O)c2ccc(N(C)C)cc2)cc1,-5.4
5,Cc1ccc2nsnc2c1NC(=O)COc1ccccc1,3.06
6,COc1cccc(C(=O)NC2CCN(CC(=O)Nc3nccs3)CC2)c1,14.9
7,Cc1ccc2oc(C(=O)N3CCC(N4CCSCC4)CC3)c(C)c2c1,6.76
8,Cc1ccccc1OCCNC(=S)Nc1ccccc1,6.99
9,O=C(COc1ccc(-c2ccccc2)cc1)N1CCN(C(=O)c2cccnc2)CC1,-8.87
10,N/C(=N/[N+](=O)[O-])N1CCN(C(=O)Oc2ccc([N+](=O)[O-])cc2)CC1,0.223
11,COc1cccc(CNC(=O)CCCc2cn(C)c3ccccc23)c1,7.93
12,COc1ccc(NC(=O)/C=C/c2ccccc2)c([N+](=O)[O-])c1,12.4
13,O=C(Nc1ccc(CN2CCOCC2)cc1)c1ccc(F)cc1,1.72
14,Oc1ccc(-c2csc(-c3c[nH]c4ccccc34)n2)c(O)c1,4.57
15,COc1cccc2c(=O)c3c(cnn3C)n(C)c12,15.2
16,NS(=O)(=O)c1ccc(CCNC(=O)COC(=O)CCN2C(=O)C3CC=CCC3C2=O)cc1 (stereo not shown),6.31
17,O=C(Nc1cccc(-c2cn3cccnc3n2)c1)c1cccs1,14.3
18,Cc1ccc(OCC(=O)NN=C2C3CC4CC(C3)CC2C4)cc1,9.61
19,COC(=O)[C@@H]1CC[C@@](C)(c2ccc(OC)cc2)C1(C)C,6.9
20,O=C(NC1CCCCC1)C(c1ccccn1)N(C(=O)Cc1cccs1)c1ccc(Cl)cc1 (stereo not shown),6.38
21,Cn1cc(/C=C/C(=O)c2ccccc2)c2ccccc21,13.1
22,COc1ccc(C2CC(c3ccccc3OC(C)=O)=NN2C(=O)/C=C/c2ccccc2)cc1OC (stereo not shown),13.1

row,Structure (SMILES),"hERG current change (%, negative = inhibition) at 1uM [%]"
1,O=C(NC1CCCCC1)N(Cc1ccc(F)cc1)Cc1nc2ccccc2c(=O)[nH]1,6.34
2,Cn1ccsc1=NC(=O)c1ccc(Cl)c([N+](=O)[O-])c1,10.4
3,CC(C)N(Cc1ccccc1)C(=O)COC(=O)/C=C/c1cnc2ccccc2n1,6.92
4,Cc1cc2ccccn2c1C(=O)c1ccc(NN)c([N+](=O)[O-])c1,0.0612
5,O=S(=O)(c1ccc(-c2ccccc2)cc1)N1CCCC1,4.65
6,C/C(CC(=O)Nc1ccc2c(c1)OCCO2)=N\NC(=O)c1ccccc1F,19.7
7,COc1ccc(-c2csc(NC(=O)c3cccs3)c2C(=O)O)cc1OC,9.47
8,O=C(NCc1ccccc1F)C1CCCN(C(=O)Nc2ccccc2)C1 (stereo not shown),4.6
9,Cc1cc(S(=O)(=O)N2CCOCC2)ccc1OCC(=O)NCC1CCCO1 (stereo not shown),12.9
10,Cc1cccc(C)c1NC(=O)CN(C)C(=O)c1cccc(S(=O)(=O)N2CCN(c3ccc(F)cc3)CC2)c1,11.5
11,Cc1nnc(SCc2cc(=O)[nH]c(=S)[nH]2)s1,12.3
12,CCc1ccc(-c2cc(C)no2)cc1S(=O)(=O)N1CCOc2ccc(C)cc21,15.8
13,CCN(CC)C(=O)c1sc(NC(=S)N2CCN(C(=O)C3CCCO3)CC2)c(C(=O)OC)c1C (stereo not shown),9.08
14,CCNC(=S)N1CCn2cccc2C1c1ccc(F)cc1 (stereo not shown),2.63
15,CCc1ccc(NC(=O)C(C)OC(=O)C2CCN(c3ccc(C(F)(F)F)cn3)CC2)cc1 (stereo not shown),-5.81
16,O=C(NCc1ccco1)c1ccc(COc2ccccc2[N+](=O)[O-])o1,4.09
17,COc1ccc(OCC(=O)NCCc2c[nH]c3ccccc23)cc1.O=C(O)C(=O)O,13.1
18,CCCCCc1cc(=O)oc2c(C(CCN(CC)CC)c3ccc(N(C)C)cc3)c(OC)cc(OC)c12 (stereo not shown),-0.563
19,CCN1CCN(CCNC(=O)c2ccc3c(c2)N(Cc2cccc(Cl)c2)C(=O)c2ccccc2S3=O)CC1 (stereo not shown),12.9
20,O=C(OCC(=O)N1CCOCC1)c1ccc2[nH]c3c(c2c1)CCCC3,6.84
21,COc1ccc(NC2CCCN(C(=O)c3oc(C)cc3C)C2)cc1OC (stereo not shown),22.2
